Here are results for two molecules from patent US12098186 (NATIONAL TECHNOLOGY AND ENGINEERING SOLUTIONS OF SANDIA, dated 2024).

Test [1] deals with T1, SARS-CoV-2 receptor-binding domain (RBD) of the spike protein (SARS-CoV-2).
The target in test [2] is T1, SARS-CoV-2 receptor-binding domain …. This is another data set of the same source.

As usually defined, the Kd is the concentration at which binding is half-saturated. Read a high Kd as weaker binding.

Where two headings read alike, the source gives them in different places.

B1: SP1B4 monotopic nanobody construct (SP1B4 nanobody on human IgG1 Fc, Nb-huFc) (Fc fusion)
chain: EVQLQASGGGFVQPGGSLRLSCAASGRAFGIYRMGWFRQAPGKEREFVSAISGGDAGHTRYADSVKGRFTISRDNSKNTVYLQMNSLRAEDTATYYCAYWDYNGVVPFFKYWGQGTQVTVSS[sequence of human IgG1 Fc omitted]
B1 returned a dissociation constant Kd in test [1] of 39.5 nM.

B2: SP1D9 monotopic nanobody construct (SP1D9 nanobody on human IgG1 Fc, Nb-huFc) (Fc fusion)
chain: EVQLQASGGGFVQPGGSLRLSCAASGRYDSYVRMGWFRQAPGKEREFVSAISGGGDKSTWYADSVKGRFTISRDNSKNTVYLQMNSLRAEDTATYYCANAQLGPAYDKIGYWGQGTQVTVSS[sequence of human IgG1 Fc omitted]
The molecule B2 registered a Kd in test [2] of 8.9 nM.
